The other results are listed elsewhere or left out. Single values of this set are uncertain. Values with irradiation are relative to irradiated vehicle.

For 13 molecules, ISRE reporter results are on record in the supplement of paper PMC9174493.

For this assay, the system named is A549-Dual. Kind of assay: ISRE reporter (Lucia luciferase) activity, viability-corrected, relative to vehicle (fold change vs vehicle); higher = more activation of STING-IRF / NF-kB immune response reporter. Conditions: 10 µM; irradiation: none.
The molecule `CC(C)=CCCC(C)CC=O` (stereo not drawn) [Citronellal] returned an ISRE reporter of 0.744.
In turn, `COc1ccccc1Oc1c(NS(=O)(=O)c2ccc(C(C)(C)C)cc2)nc(-c2ncccn2)nc1OCCO.O` [Bosentan Hydrate] showed an ISRE reporter of 0.859.
The molecule `O=C(O)c1ccc(C(=O)O)cc1` [Terephthalic acid] gave an ISRE reporter of 0.637.
Regarding `Cc1ccc(S(=O)(=O)NC(=O)NN2CC3CCCC3C2)cc1` (stereo not drawn) [Gliclazide], the ISRE reporter was 0.863.
In turn, `OCc1cc(C(O)CNCCCCCCOCCCCc2ccccc2)ccc1O` (stereo not drawn) [Salmeterol] gave an ISRE reporter of 0.852.
`Cc1cc(O)c2c(c1)C(=O)c1cc(O)cc(O)c1C2=O` [Emodin] registered an ISRE reporter of 0.263.
Under `CN(C)c1cc(NC(=O)CNC(C)(C)C)c(O)c2c1CC1CC3C(N(C)C)C(O)=C(C(N)=O)C(=O)C3(O)C(O)=C1C2=O` (stereo not drawn) [Tigecycline] stands 0.791; under `O=C(Nc1ccc(Cl)cc1)Nc1ccc(Cl)c(Cl)c1` [Triclocarban], 0.39; under `CC1=NN(c2ccc(C)c(C)c2)C(=O)/C1=N\Nc1cccc(-c2cccc(C(=O)O)c2)c1O` [Eltrombopag], 0.469.
Molecule `Cc1cc(C2CCCCC2)n(O)c(=O)c1` [Ciclopirox] displayed an ISRE reporter of 0.797.
The molecule `CN(C)CCCN1c2ccccc2Sc2ccc(Cl)cc21.Cl` [Chlorpromazine HCl] returned an ISRE reporter of 2.07.
With `CCc1cc2c(cc1CC)CC(NCC(O)c1ccc(O)c3[nH]c(=O)ccc13)C2.O=C(O)/C=C\C(=O)O` (stereo not drawn) [Indacaterol Maleate] the figure was 0.99; with `CCCOC(=O)c1ccc(O)cc1` [Propylparaben], 0.486.
